1 molecule from patent US20100119516A1, “ANTI-TGF-BETA RECEPTOR II ANTIBODIES” (priority 2008, published 2010) can be followed below.

Assay [1] concerns the target T1, extracellular domain of human TGFβRII (Homo sapiens, UniProt P37173).
T1 construct: made in house
Nature of the assay: Surface plasmon resonance (BIAcore 2000), human TGFβRII extracellular domain. The note with it: room temperature (20-25° C.). The format is binding. How it is done:
Kinetic analyses of the mAbs are performed by immobilization of a fusion protein of recombinant extracellular domain of either mouse TGFβRII (SEQ ID NO: 51), or the extracellular domain of human TGFβRII (SEQ ID NO: 52) linked, respectively, with either mouse or human Fc or heavy chain constant region, onto a sensor surface at a concentration of from 5 to 100 nM.
In general terms: SPR reads the build-up and loss of mass on a sensor chip optically.

The next assay deals with T2, mouse TGFβRII (Mus musculus, UniProt Q62312).
T2 construct: made in house
T2 sequence (Q62312 24-184 isoform Q62312-1): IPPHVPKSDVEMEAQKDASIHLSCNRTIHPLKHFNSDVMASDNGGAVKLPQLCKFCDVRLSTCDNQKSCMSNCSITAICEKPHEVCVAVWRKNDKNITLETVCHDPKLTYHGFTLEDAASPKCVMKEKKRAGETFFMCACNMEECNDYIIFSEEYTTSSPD
As to the kind of experiment: Species specificity of anti-human TGFβRII mAbs by ELISA. The format is binding. The text has this: At day 10 to 12 post-fusion, the hybridomas are screened for antibody production and specific binding activity of culture supernatants with TGFβRII protein in ELISA-based binding and blocking assays. Specifically, hybridomas producing anti-TGFβRII mAbs are first identified by detection of TGFβRII-bound antibody with a goat anti-human kappa light chain or anti-mouse IgG horse radish peroxidase (HRP) conjugated antibody according to the following procedure. Human TGFβRII-Fc or mouse TGFβRII-Fc is coated at 100 ng/well on 96 microtiter plates at 4° C. overnight. The coated plates are blocked with the blocking buffer (PBS 0.05% TWEEN® 20 containing 5% dry milk) at room temperature for 2 hours. Hybridoma supernatants or purified antibodies are diluted in PBS with 2% bovine serum albumin (BSA) and 0.05% TWEEN® 20 (ELISA buffer) and incubated in TGFβRII-coated, 96-well, microtiter plates for 30 minutes. […] The absorbance at 450 nanometers (nm) is read for quantification of binding activity of antibodies. […] The absorbance at 405 nm is read for quantification of TGFβRII-binding to TGFβ1, TGFβ2, and TGFβ3. Optical density (OD) values are read on a microtiter plate reader (Molecular Devices Corp., Sunnyvale, Calif.).
The specificity of anti-human TGFβRII mAbs is determined by measuring the reactivity of the antibodies to human TGFβRII or mouse TGFβRII by ELISA.
Background: ELISA stands for enzyme-linked immunosorbent assay.

T1 sequence (P37173 23-166): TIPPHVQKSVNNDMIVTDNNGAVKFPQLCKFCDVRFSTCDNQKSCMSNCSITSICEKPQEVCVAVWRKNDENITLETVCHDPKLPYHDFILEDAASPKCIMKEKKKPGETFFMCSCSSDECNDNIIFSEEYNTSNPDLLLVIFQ

B1: mAb TGF2: anti-human TGFβRII human IgG1 mAb; HCVR SEQ ID NO: 29, LCVR SEQ ID NO: 31, HC SEQ ID NO: 41, LC SEQ ID NO: 43 (antibody)
heavy: QVQLVQSGAAVKKPGESLKISCKGSGYRFTSYWIGWVRQMPGKGLEWMGIIYPGDSDTRYSPSFQGQVTISAGKSISTAYLQWSSLKASDTAMYYCARHGRGYNGYEGAFDIWGQGTMVTVSSASTKGPSVFPLAPSSKSTSGGTAALGCLVKDYFPEPVTVSWNSGALTSGVHTFPAVLQSSGLYSLSSVVTVPSSSLGTQTYICNVNHKPSNTKVDKRV[here human IgG1 Fc without letters]
light: [here about 200 residues without letters]
In the case of B1, in assay [1], the Koff stood at 3.4e-05 s⁻¹ and the Kon stood at 430000 M⁻¹ s⁻¹. For the same molecule, the “blocking of human TGFβRII binding to mouse TGFβRII” value with mouse TGFβRII is “do not block”. Further, the “cross-reactivity with mouse TGFβRII” value in the assay with mouse TGFβRII (ELISA) is on record as “intermediate or minimal cross reactivity”.
